# The other results are listed elsewhere or left out. Single values are uncertain, as repeats are few or missing.
# Columns and labels:
# Assay in all cases: cell count relative to DMSO control; melanoma cells; higher = more viable cells
# Conditions in all cases: library dose: standard library concentration; 72 h
# SkMel28 = test system: SkMel28
# SkMel2 = test system: SkMel2
# SkMel30 = test system: SkMel30
# SkMel5 = test system: SkMel5
# UACC257 = test system: UACC257
# UACC62 = test system: UACC62
# WM115 = test system: WM115
# WM1716 = test system: WM1716
# WM1745 = test system: WM1745
# WM3526 = test system: WM3526
# 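Note: cells treated in 1,536-well plates, then fixed and DAPI-stained, with nuclei counted from automated high-throughput microscope images.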
SMILES,cell count (SkMel28) [%],cell count (SkMel2) [%],cell count (SkMel30) [%],cell count (SkMel5) [%],cell count (UACC257) [%],cell count (UACC62) [%],cell count (WM115) [%],cell count (WM1716) [%],cell count (WM1745) [%],cell count (WM3526) [%]
"Cc1ccc(Nc2nccc(N(C)c3ccc4c(C)n(C)nc4c3)n2)cc1S(N)(=O)=O [Pazopanib] + OCc1c[nH]c2ccccc12 [Indole-3-carbinol] (first compound 2 µM, partner dose 4 µM)",112,102,90.6,119,100,88.6,101,97.4,99.5,88.1
"Cc1ccc(Nc2nccc(N(C)c3ccc4c(C)n(C)nc4c3)n2)cc1S(N)(=O)=O [Pazopanib] + C[C@@H](Oc1cc(-c2cnn(C3CCNCC3)c2)cnc1N)c1c(Cl)ccc(F)c1Cl [Crizotinib] (first compound 2 µM, partner dose 1 µM)",31.3,81.4,92.6,58.1,89.6,69.8,50.7,82,62.7,79.4
"CC1(C)CCC(c2ccc(Cl)cc2)=C(CN2CCN(c3ccc(C(=O)NS(=O)(=O)c4ccc(N[C@H](CCN5CCOCC5)CSc5ccccc5)c(S(=O)(=O)C(F)(F)F)c4)cc3)CC2)C1 + CS(=O)(=O)CCNCc1ccc(-c2ccc3ncnc(Nc4ccc(OCc5cccc(F)c5)c(Cl)c4)c3c2)o1 [lapatinib] (first compound 2 µM, partner dose 4 µM)",43.2,58.2,63.9,50.9,37.4,19.3,53.5,48.4,6.42,66.3
"Cc1ccc(Nc2nccc(N(C)c3ccc4c(C)n(C)nc4c3)n2)cc1S(N)(=O)=O [Pazopanib] + Nc1nc(F)nc2c1ncn2[C@@H]1O[C@H](CO)[C@@H](O)[C@@H]1O [fludarabine] (first compound 2 µM, partner dose 1 µM)",2.55,1.41,28.2,27.9,39.5,57.7,90.6,71.8,79.9,26.8
"CC1(C)CCC(c2ccc(Cl)cc2)=C(CN2CCN(c3ccc(C(=O)NS(=O)(=O)c4ccc(N[C@H](CCN5CCOCC5)CSc5ccccc5)c(S(=O)(=O)C(F)(F)F)c4)cc3)CC2)C1 + COCC[n+]1c2c(n(Cc3cnccn3)c1C)C(=O)c1ccccc1C2=O [YM155] (first compound 2 µM, partner dose 0.002 µM)",20.3,19.6,49.8,17.8,25.9,39.7,56.8,21.8,4.26,24.4
"O=C(/C=C/c1cccnc1)NCCCCC1CCN(C(=O)c2ccccc2)CC1 + C=CCn1c(=O)c2cnc(Nc3ccc(N4CCN(C)CC4)cc3)nc2n1-c1cccc(C(C)(C)O)n1 [MK1775] (first compound 0.05 µM, partner dose 0.1 µM)",54.4,26.4,99.9,71.6,89.2,61.6,77.1,72.6,53.7,111
"Cc1ccc(Nc2nccc(N(C)c3ccc4c(C)n(C)nc4c3)n2)cc1S(N)(=O)=O [Pazopanib] + Nc1cccc2c1CN(C1CCC(=O)NC1=O)C2=O [lenalidomide] (first compound 2 µM, partner dose 5 µM)",80.6,104,84.4,85.7,84.5,69.7,90.6,83.8,88.6,79.3
"Cc1ccc(Nc2nccc(N(C)c3ccc4c(C)n(C)nc4c3)n2)cc1S(N)(=O)=O [Pazopanib] + COc1cc(Nc2ncc(F)c(Nc3ccc4c(n3)NC(=O)C(C)(C)O4)n2)cc(OC)c1OC [Tamatinib] (first compound 2 µM, partner dose 2 µM)",50.1,75.5,84.8,32.1,75.2,53.8,69.4,76.4,25.6,70.2
"O=C(/C=C/c1cccnc1)NCCCCC1CCN(C(=O)c2ccccc2)CC1 + Cn1cncc1[C@@](N)(c1ccc(Cl)cc1)c1ccc2c(c1)c(-c1cccc(Cl)c1)cc(=O)n2C [tipifarnib] (first compound 0.05 µM, partner dose 0.05 µM)",52.3,27,101,76.2,87.6,73.3,60.9,70.1,118,84.2
"CC1(C)CCC(c2ccc(Cl)cc2)=C(CN2CCN(c3ccc(C(=O)NS(=O)(=O)c4ccc(N[C@H](CCN5CCOCC5)CSc5ccccc5)c(S(=O)(=O)C(F)(F)F)c4)cc3)CC2)C1 + Cc1cc(Nc2cc(N3CCN(C)CC3)nc(/C=C/c3ccccc3)n2)n[nH]1 [ENMD2076] (first compound 2 µM, partner dose 0.2 µM)",69.5,64.9,44.4,70.7,37.4,60.9,51.8,60,13.8,71.3
"O=C(/C=C/c1cccnc1)NCCCCC1CCN(C(=O)c2ccccc2)CC1 + Nc1cccc2c1CN(C1CCC(=O)NC1=O)C2=O [lenalidomide] (first compound 0.05 µM, partner dose 5 µM)",80.5,17.6,103,90.2,96.3,64.5,91.7,75.6,72.1,105
"O=C(/C=C/c1cccnc1)NCCCCC1CCN(C(=O)c2ccccc2)CC1 + C=CCNC1=C2C[C@@H](C)C[C@H](OC)[C@H](O)[C@@H](C)/C=C(\C)[C@H](OC(N)=O)[C@@H](OC)/C=C\C=C(/C)C(=O)NC(=CC1=O)C2=O [Tanespimycin] (first compound 0.05 µM, partner dose 0.01 µM)",59.7,23.7,87.7,52.5,85.6,49.9,29.1,68.3,63.6,65.4
"O=C(/C=C/c1cccnc1)NCCCCC1CCN(C(=O)c2ccccc2)CC1 + NC1(c2ccc(-c3nc4ccn5c(=O)[nH]nc5c4cc3-c3ccccc3)cc2)CCC1 [MK2206] (first compound 0.05 µM, partner dose 2 µM)",75.1,37.7,83.6,88.3,82.5,69.9,70.8,60.9,91.9,70.8
"O=C(/C=C/c1cccnc1)NCCCCC1CCN(C(=O)c2ccccc2)CC1 + Nc1ncn([C@H]2C[C@H](O)[C@@H](CO)O2)c(=O)n1 [decitabine] (first compound 0.05 µM, partner dose 0.5 µM)",124,5.02,108,79.2,101,71.3,74.7,70.3,75.2,105
"O=C(/C=C/c1cccnc1)NCCCCC1CCN(C(=O)c2ccccc2)CC1 + OCCn1cc(-c2cnc3nnn(Cc4ccc5ncccc5c4)c3n2)cn1 [PF04217903] (first compound 0.05 µM, partner dose 5 µM)",60.5,11.3,94.2,86.9,89.3,61.9,74.4,74.4,90.5,102
"O=C(/C=C/c1cccnc1)NCCCCC1CCN(C(=O)c2ccccc2)CC1 + CCN(CC)CCNC(=O)c1c(C)[nH]c(/C=C2\C(=O)Nc3ccc(F)cc32)c1C [sunitinib] (first compound 0.05 µM, partner dose 2 µM)",37.8,22.1,45,55.2,88.3,51.7,63.1,72.4,67.1,56.5
"O=C(/C=C/c1cccnc1)NCCCCC1CCN(C(=O)c2ccccc2)CC1 + NC(=O)Nc1cc(-c2cccc(F)c2)sc1C(=O)N[C@H]1CCCNC1 [AZD7762] (first compound 0.05 µM, partner dose 0.1 µM)",36.4,13.6,102,95.3,101,62.7,76.9,78.2,94.3,47.7
"CC1(C)CCC(c2ccc(Cl)cc2)=C(CN2CCN(c3ccc(C(=O)NS(=O)(=O)c4ccc(N[C@H](CCN5CCOCC5)CSc5ccccc5)c(S(=O)(=O)C(F)(F)F)c4)cc3)CC2)C1 + C=CCNC1=C2C[C@@H](C)C[C@H](OC)[C@H](O)[C@@H](C)/C=C(\C)[C@H](OC(N)=O)[C@@H](OC)/C=C\C=C(/C)C(=O)NC(=CC1=O)C2=O [Tanespimycin] (first compound 2 µM, partner dose 0.01 µM)",54.9,77.1,54.4,71.1,32.1,48.7,25,62.4,6.35,67.4
"Cc1ccc(Nc2nccc(N(C)c3ccc4c(C)n(C)nc4c3)n2)cc1S(N)(=O)=O [Pazopanib] + CN1CCN(c2ccc3nc(-c4c(N)c5c(F)cccc5[nH]c4=O)[nH]c3c2)CC1 [Dovitinib] (first compound 2 µM, partner dose 0.5 µM)",63.6,65.2,75.2,58.2,79.4,50.8,51.8,69,51.2,74.4
"CC1(C)CCC(c2ccc(Cl)cc2)=C(CN2CCN(c3ccc(C(=O)NS(=O)(=O)c4ccc(N[C@H](CCN5CCOCC5)CSc5ccccc5)c(S(=O)(=O)C(F)(F)F)c4)cc3)CC2)C1 + Cc1nc(Nc2ncc(C(=O)Nc3c(C)cccc3Cl)s2)cc(N2CCN(CCO)CC2)n1 [dasatanib] (first compound 2 µM, partner dose 0.02 µM)",66.5,90.3,77.5,51.2,36.7,54.9,39.2,42,2.67,68
"Cc1ccc(Nc2nccc(N(C)c3ccc4c(C)n(C)nc4c3)n2)cc1S(N)(=O)=O [Pazopanib] + Cc1cn(-c2cc(NC(=O)c3ccc(C)c(Nc4nccc(-c5cccnc5)n4)c3)cc(C(F)(F)F)c2)cn1 [nilotinib] (first compound 2 µM, partner dose 1 µM)",81.2,87.8,93,48.8,83.7,54.3,92.5,112,84.5,71.8

# Source: the supplement of paper PMC4604168 (melanoma cell lines)
